The list shows a part of the results. These are noisy estimates, calculated here from bound and input reads.

In the experiment the target is T1, Pho4 (S. cerevisiae) (UniProt P07270).
T1 sequence: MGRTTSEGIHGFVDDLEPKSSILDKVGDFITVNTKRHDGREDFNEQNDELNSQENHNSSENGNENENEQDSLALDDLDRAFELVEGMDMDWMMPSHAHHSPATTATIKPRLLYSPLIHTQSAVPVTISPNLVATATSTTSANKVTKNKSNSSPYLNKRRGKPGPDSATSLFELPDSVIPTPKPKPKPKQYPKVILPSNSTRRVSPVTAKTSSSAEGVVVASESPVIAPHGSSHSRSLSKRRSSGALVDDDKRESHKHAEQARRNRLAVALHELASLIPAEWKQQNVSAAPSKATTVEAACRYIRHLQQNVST
Briefly: relative binding free energy (BET-seq); higher = weaker binding. To be noted: reference: library average.
Turning to TATAGCACGTGATTGC, the “relative binding free energy” value was found to be 0.16 kcal/mol.
As for TATTGCACGTGCGCGG, the figure is -0.24 kcal/mol; as for GGCTTCACGTGTCAGG, 0.41 kcal/mol; as for AAGTACACGTGGAGTG, -0.02 kcal/mol.
The same measure for GCTTGCACGTGTGGAG: 0.18 kcal/mol; for AGGCGCACGTGTGGGA: 0.03 kcal/mol.
As for TGGAACACGTGGGATA, the figure is 0.03 kcal/mol; as for TCTTACACGTGGGTTA, 0.04 kcal/mol.
Take GGTGGCACGTGTTAAT: the “relative binding free energy” value stood at 0.03 kcal/mol.
TGTTTCACGTGCGGGC: the “relative binding free energy” value was 0.24 kcal/mol.
The same measure for TGGTTCACGTGGAGCA: 0.33 kcal/mol.
As for TTAGGCACGTGCAGAT, the figure is -0.1 kcal/mol.
With CATTTCACGTGGGTAG, the “relative binding free energy” value amounted to 0.16 kcal/mol.
As for GTCGTCACGTGGGCGA, the figure is 0.04 kcal/mol; as for TTGTACACGTGGATAT, 0.15 kcal/mol; as for AAAGACACGTGTGGTA, 0.09 kcal/mol.
As for GGTTACACGTGCGTTA, the figure is 0.14 kcal/mol.
As for TTGGGCACGTGTTGTT, the figure is -0.12 kcal/mol; as for TTGAGCACGTGAGGTA, 0.13 kcal/mol; as for AATGTCACGTGTGCTA, 0.12 kcal/mol.
CTTGGCACGTGTGTGA: the “relative binding free energy” value was -0.18 kcal/mol.
As for TCCATCACGTGGTTGG, the figure is 0.21 kcal/mol; as for TTGTACACGTGAATTT, 0.32 kcal/mol; as for AATTTCACGTGGATGG, 0.21 kcal/mol.
The same measure for CTGTTCACGTGTACTG: 0.28 kcal/mol; for TGTGGCACGTGAATGG: 0.17 kcal/mol; for GTGTGCACGTGGACAA: 0.07 kcal/mol.
As for CGTCTCACGTGTTGTG, the figure is 0.04 kcal/mol; as for AGGTTCACGTGTGATG, 0.46 kcal/mol.
TAGTTCACGTGATAAA: the “relative binding free energy” value amounted to 0.4 kcal/mol.
The same measure for GGATGCACGTGTTTCA: 0.03 kcal/mol; for TAGTACACGTGCGTGG: 0 kcal/mol; for GGTTGCACGTGATTCG: 0.25 kcal/mol.
In the case of TTTATCACGTGGAATT, the “relative binding free energy” value was determined as 0.24 kcal/mol.
As for TCGGGCACGTGGGTAA, the figure is -0.21 kcal/mol.
In the case of AGTGTCACGTGCCTTT, the “relative binding free energy” value amounted to 0.04 kcal/mol.
As for TACTGCACGTGTGGGA, the figure is 0.05 kcal/mol; as for CTGAGCACGTGTAATA, 0.18 kcal/mol; as for TGTTTCACGTGAATTG, 0.4 kcal/mol.
As for TGTTACACGTGAGATT, the figure is 0.35 kcal/mol; as for ATGTACACGTGGATAT, 0 kcal/mol; as for ACAGACACGTGGGTGG, -0.25 kcal/mol.
The same measure for GCGGGCACGTGATGTA: -0.05 kcal/mol.
Regarding AGTTCCACGTGGATTA, the “relative binding free energy” value stood at 0.28 kcal/mol.
The same measure for TCTGTCACGTGGGAGT: -0.08 kcal/mol.
For TTCTGCACGTGATTTG, the “relative binding free energy” value stood at 0.16 kcal/mol.
The same measure for GATAGCACGTGTAGTA: 0.09 kcal/mol.
As for AGTTTCACGTGGCGGG, the figure is 0.16 kcal/mol.
The same measure for TGTTGCACGTGGGTCT: -0.12 kcal/mol.
In the case of CGGGTCACGTGACAGG, the “relative binding free energy” value was found to be 0.1 kcal/mol.
As for GGGTGCACGTGTTTTA, the figure is 0.13 kcal/mol; as for GTTATCACGTGAAGTC, 0.41 kcal/mol.
The same measure for TTTGCCACGTGGCGGG: -0.36 kcal/mol; for GATCGCACGTGGAGTT: 0.09 kcal/mol; for GGTTTCACGTGATGGT: 0.41 kcal/mol.
For GCATTCACGTGATTGG, the “relative binding free energy” value stood at 0.25 kcal/mol.
As for GAGTGCACGTGTTTTC, the “relative binding free energy” value came out at 0.12 kcal/mol.
The same measure for TGGTGCACGTGAAGAT: 0.2 kcal/mol; for TCATGCACGTGTTATG: 0.06 kcal/mol; for TAGGGCACGTGAAGAT: 0.15 kcal/mol.
GGGGACACGTGATACG: the “relative binding free energy” value is 0.19 kcal/mol.
As for TGTAGCACGTGAAGAA, the figure is 0.26 kcal/mol; as for GGGTACACGTGGGTTT, -0.04 kcal/mol.
ACATACACGTGTAGGG: the “relative binding free energy” value was 0 kcal/mol.
The same measure for TGATCCACGTGTGGTT: 0.16 kcal/mol; for TAATTCACGTGTTGCG: 0.28 kcal/mol.
On to CGGGTCACGTGGACTG, for which the “relative binding free energy” value worked out at 0.19 kcal/mol.
Take GTTCACACGTGGGCGT: the “relative binding free energy” value was -0.04 kcal/mol.
Regarding TTGTCCACGTGGTCTT, the “relative binding free energy” value was -0.06 kcal/mol.
As for AATTTCACGTGCTGGA, the figure is 0.28 kcal/mol.
As for GCCTGCACGTGTGGGG, the figure is 0.07 kcal/mol; as for TTTGTCACGTGTAGTT, 0.23 kcal/mol; as for AGTTTCACGTGATATC, 0.22 kcal/mol.
As for TGTGGCACGTGGGGCA, the figure is -0.25 kcal/mol; as for ATTGACACGTGTCGTT, -0.04 kcal/mol.
For AATTTCACGTGCGGGT, the “relative binding free energy” value was 0.22 kcal/mol.
GCAATCACGTGGGGGG: the “relative binding free energy” value was found to be 0.02 kcal/mol.
As for ATAAGCACGTGGGGGC, the figure is -0.34 kcal/mol; as for TTTGACACGTGGGTAG, 0 kcal/mol.
As for TGCGGCACGTGTTTCG, the figure is -0.02 kcal/mol; as for TAATGCACGTGTTCGT, -0.03 kcal/mol; as for CAAAGCACGTGAGTGT, 0.16 kcal/mol.
The same measure for CGTGGCACGTGTGGTC: -0.05 kcal/mol; for TTACGCACGTGTATTT: -0.17 kcal/mol; for TGATACACGTGGTGGA: 0.05 kcal/mol.
Consider ATTGTCACGTGAAGCT, for which the “relative binding free energy” value was determined as 0.25 kcal/mol.
The same measure for AATGGCACGTGGGAAT: -0.11 kcal/mol; for ATTTTCACGTGGTGAG: 0.3 kcal/mol.
For AGTTTCACGTGGAATG, the “relative binding free energy” value came out at 0.28 kcal/mol.
As for TTTTTCACGTGTAAAC, the figure is 0.44 kcal/mol; as for AGGTTCACGTGCATTT, 0.18 kcal/mol.
The same measure for TTTGACACGTGTGGTT: 0.07 kcal/mol; for TTAGTCACGTGTCGGG: 0.16 kcal/mol; for ATGAGCACGTGCTTGT: -0.19 kcal/mol.
The same measure for GCGTTCACGTGGATAG: 0.29 kcal/mol.
As for GTTCTCACGTGTAATT, the “relative binding free energy” value stood at 0.32 kcal/mol.
The same measure for TGGGTCACGTGTGCTT: 0.12 kcal/mol; for CATGGCACGTGTGGGA: 0.01 kcal/mol.
For TTATGCACGTGGTCAT, the “relative binding free energy” value is -0.2 kcal/mol.
As for TATAACACGTGAATGT, the figure is 0.15 kcal/mol; as for GTAGTCACGTGTGCTC, 0.33 kcal/mol.
As for GGCACCACGTGGGGTT, the figure is -0.07 kcal/mol.
The same measure for TATGACACGTGGGAAT: -0.12 kcal/mol; for GGAGACACGTGACTTT: 0.35 kcal/mol; for GGGGTCACGTGATAAC: 0.44 kcal/mol.
In the case of TGACTCACGTGTCGTG, the “relative binding free energy” value worked out at 0.11 kcal/mol.
As for GATAGCACGTGCATGG, the figure is 0.02 kcal/mol.
As for AAAGACACGTGGGTGT, the figure is -0.02 kcal/mol.
The same measure for TCTTGCACGTGGGGCA: -0.08 kcal/mol; for TGGTACACGTGGTTTT: 0.2 kcal/mol; for AGTTGCACGTGGTCAG: -0.11 kcal/mol.
On to TATATCACGTGTATAT, for which the “relative binding free energy” value was determined as 0.14 kcal/mol.
For the sequence AGTTGCACGTGGTGTG, the “relative binding free energy” value is -0.02 kcal/mol.
As for TAGGGCACGTGAATTT, the figure is 0.22 kcal/mol; as for GTGTGCACGTGTTGGT, 0.06 kcal/mol; as for GGAGGCACGTGGTAGT, -0.15 kcal/mol.
The same measure for CTGGGCACGTGGGTGG: -0.31 kcal/mol; for GGCTTCACGTGGTCGT: 0.07 kcal/mol.
As for ATAAACACGTGGGGTG, the figure is -0.18 kcal/mol; as for GGACGCACGTGGTCGG, 0.03 kcal/mol; as for GGTTGCACGTGTGATT, 0.13 kcal/mol.
For GAGGTCACGTGGATTG, the “relative binding free energy” value was found to be 0.08 kcal/mol.
As for CGTGGCACGTGAAGTG, the figure is 0.09 kcal/mol; as for AGTTTCACGTGATGTA, 0.35 kcal/mol.
On to GATTGCACGTGAGATG, for which the “relative binding free energy” value amounted to 0.3 kcal/mol.
Consider CTGGGCACGTGTGTGC, for which the “relative binding free energy” value was -0.34 kcal/mol.
GGTTGCACGTGTTAAT: the “relative binding free energy” value amounted to 0.11 kcal/mol.
Consider CAAGGCACGTGTAGTT, for which the “relative binding free energy” value was found to be 0 kcal/mol.
As for GGAGTCACGTGTAGAG, the “relative binding free energy” value worked out at 0.24 kcal/mol.
As for GTGCACACGTGGTCGG, the figure is 0.03 kcal/mol; as for CTGGTCACGTGGGGAT, 0.08 kcal/mol.
As for TTAGACACGTGATGTA, the figure is -0.02 kcal/mol; as for TTATTCACGTGATAGA, 0.31 kcal/mol.
The same measure for TGATGCACGTGTGAAA: -0.06 kcal/mol.
Turning to GGAGCCACGTGAGGTT, the “relative binding free energy” value turned out to be 0.24 kcal/mol.
For the sequence GGGGGCACGTGTGTAC, the “relative binding free energy” value came to 0 kcal/mol.
The same measure for GAAATCACGTGGGCGG: 0.25 kcal/mol.
The same measure for CATTTCACGTGGTAGA: 0.32 kcal/mol; for GTTTACACGTGCTGAT: 0.14 kcal/mol; for ACAGGCACGTGTTGGG: -0.16 kcal/mol.
For AGGTACACGTGGGTCA, the “relative binding free energy” value was -0.01 kcal/mol.
As for TTGCGCACGTGGGCAA, the figure is -0.2 kcal/mol.
As for TATCACACGTGTTGGC, the figure is 0.25 kcal/mol; as for GTGGACACGTGGGATA, 0.02 kcal/mol.
As for TTTCACACGTGATGGT, the figure is 0.09 kcal/mol; as for TTGGGCACGTGATTGA, 0.12 kcal/mol.

For the origin of these results see the BET-seq Pho4 binding data (Le et al. 2018).
